Test results as given in the supplement of paper PMC10126150.
Values marked as one replicate rest on one cluster of the flow cell; about a third of the high ones do not repeat.

tested on: ATP; test: switch fluorescence ratio, 500 uM ATP over buffer (Cy3 cluster intensity, sum of 5 cycles each) (fold (ratio)); higher = stronger signal-on switching upon ATP binding; sequences stand for … in TCGTCGGCAGCGTCAGATGTGTATAAGAGACAGTTTTTTTTTTTTTTTTTTTTTTTTT…TC; conditions: aptamer strand: ATP DNA aptamer (quencher-CACCTGGGGGAGTATTGCGGAGGAAGG + anchor), 100 nM annealed; ATP concentration: 500 uM; one replicate
Outline: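 Imaging in selection buffer was followed by imaging after 15 min with 500 uM ATP at 22 °C, for Cy3-labelled switching-strand clusters annealed to 100 nM quencher-labelled ATP aptamer on a modified Illumina MiSeq flow-cell. Five of these buffer/ATP cycles ran, separated by NaOH stripping and re-annealing. The fluorescence ratio per cluster is summed target-cycle over summed buffer-cycle Cy3 intensity, averaged per switch-domain sequence; clusters outside 100-1000 RFU were removed.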
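Note: ATP exposure 15 min at 22 °C before imaging.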

Sequence	switch fluorescence ratio
TTAGTTCTTT	1.03
TTAGTTGCAT	1.01
TTAGTTGGCG	1.06
TTATAAGTAA	1.08
TTATAATGTA	0.983
TTATAATTGC	0.975
TTATACCAGG	1.25
TTATACCGGA	0.989
TTATACCTAG	1.03
TTATACGCAG	1.07
TTATACTACT	1.1
TTATACTGCC	1.16
TTATAGAT	1.01
TTATATAC	1.25
TTATATCAGT	0.964
TTATCCAAAT	1.04
TTATCCGGGC	1.22
TTATCGACTT	1.06
TTATCGAGCA	0.945
TTATCTCAT	1.02
TTATGAGAGA	0.996
TTATGAGCTC	0.98
TTATGCGTAT	1
TTATGCTCGC	1.04
TTATGGCTTA	0.963
TTATGGTTTG	1

Sequence	switch fluorescence ratio
TTATGTGCAC	1.04
TTATGTGGAA	1
TTATGTTATG	0.987
TTATTAATAG	0.954
TTATTACCCT	1.04
TTATTCACAA	1.03
TTATTCATAT	0.991
TTATTCCCTG	1.02
TTATTGGATA	0.967
TTATTTATA	0.957
TTATTTCAAA	0.999
TTATTTGGTT	0.997
TTATTTTTAC	0.983
TTCAAAAAAT	1.16
TTCAAACGA	0.992
TTCAAAGGA	0.939
TTCAAATTCG	1.03
TTCAACATGA	1.03
TTCAACCGCA	4.51
TTCAACGGTT	1.11
TTCAACTCGC	1.8
TTCAATTAAC	1.02
TTCACCCGAG	1.18
TTCACCGCCC	1.86
TTCACCGCCG	1.08
TTCACGAAGC	1.08

Sequence	switch fluorescence ratio
TTCACGAGG	1.04
TTCACGCCG	1.09
TTCACGGGAA	0.946
TTCACGTCTC	1.03
TTCACTTACT	1.12
TTCAGACATT	1.01
TTCAGAGATT	0.996
TTCAGGCAAT	1.03
TTCAGTGATG	1.03
TTCAGTTA	1
TTCATACTGT	1
TTCATAGACT	0.983
TTCATATATC	0.952
TTCATATTTG	0.97
TTCATCAGAG	0.999
TTCATCCCTC	1.06
TTCATCCGTG	1.31
TTCATCTGCG	1.11
TTCATCTTTT	0.994
TTCATGAAGA	0.975
TTCATGACAA	1.09
TTCATGTTTG	1.01
TTCATTCA	1.05
TTCATTCTAA	0.993
TTCATTCTAC	0.973
TTCATTTGTG	0.975

Sequence	switch fluorescence ratio
TTCCAAAGTA	1.01
TTCCAATAGT	1.04
TTCCAATATT	1.89
TTCCACACTG	1.02
TTCCAGCCTT	1
TTCCAGTGCT	1.4
TTCCCCTTAG	1.05
TTCCCGCGCG	1.01
TTCCCGCGTC	3.28
TTCCGATGTT	1.28
TTCCGCATCA	3.58
TTCCGCCAAC	2.42
TTCCGCCCAA	3.3
TTCCGCCGTC	1.06
TTCCGGACC	1.12
TTCCGGGACT	1.11
TTCCGTCTCT	1.01
TTCCGTGCTC	1.13
TTCCTGGTTG	0.992
TTCCTTAGGT	1
TTCGAACGTT	1.03
TTCGAAGAAG	0.976
TTCGAAGGTG	1.14
TTCGAATCAT	1.01
TTCGAGCAGG	1.14
TTCGATAGTA	0.948

Sequence	switch fluorescence ratio
TTCGCAAAGG	2.02
TTCGCCTTCC	2.67
TTCGCGAGAA	1.02
TTCGCGATCT	1.68
TTCGCGCAAT	4.12
TTCGCGGAC	3.97
TTCGCGGGCA	1.07
TTCGCGTC	1.01
TTCGCTACAG	1.07
TTCGCTATA	1.57
TTCGCTGTA	1.07
TTCGCTTTAA	1.04
TTCGGACGAG	1.02
TTCGGCTCAC	1.06
TTCGGTGCAG	0.945
TTCGGTGGAT	0.975
TTCGGTTCCT	0.997
TTCGTAAAGC	1.09
TTCGTAACTT	0.986
TTCGTAGGAG	0.994
TTCGTATGGT	0.965
TTCGTATGTC	1.01
TTCGTCCCCG	0.998
TTCGTCCGTG	1.15
TTCGTCTGTG	1
TTCGTCTGTT	1.02

Sequence	switch fluorescence ratio
TTCGTCTTTA	0.956
TTCGTGAAGG	0.967
TTCGTGTACT	1.08
TTCGTGTTAG	1.02
TTCGTTGAT	1.03
TTCGTTTATA	0.954
TTCTAATACT	1.12
TTCTAATGCG	1.04
TTCTAATGGG	1
TTCTACAGTC	0.95
TTCTATACTT	1.05
TTCTATCGTC	1
TTCTATTCAT	1.01
TTCTCACAGA	1.68
TTCTCACGCT	1.17
TTCTCAGCCT	1.07
TTCTCGATTC	1.04
TTCTCTGCCT	1.26
TTCTCTGGTT	1.15
TTCTCTTCCG	1.15
TTCTGACAGG	1.02
TTCTGCATAT	1.27
TTCTGGGGA	0.963
TTCTGTCGAG	0.971
TTCTGTGGTT	1.03
TTCTGTTCAA	1.02

Sequence	switch fluorescence ratio
TTCTGTTCAG	1
TTCTTACGGT	1.03
TTCTTAGAAC	1.07
TTCTTAGGCA	1
TTCTTAGTGA	1
TTCTTATGGG	0.997
TTCTTCAATT	1
TTCTTCGCGT	3.49
TTCTTCTTCT	0.94
TTCTTTGCTC	1.05
TTCTTTTTAA	1
TTGAAAAACG	1.06
TTGAAACT	1.03
TTGAAACTAA	1.07
TTGAACCTGA	1.49
TTGAACTCTA	1.04
TTGAACTTGG	0.993
TTGAAGAGAA	0.999
TTGAAGCCTT	1.08
TTGAAGCGCG	1.01
TTGAAGTTT	0.993
TTGAATAGGT	0.955
TTGACAGAG	0.933
TTGACAGGGG	1.37
TTGACCCGCC	0.958
TTGACGTATC	2

Sequence	switch fluorescence ratio
TTGACTAAAT	1.02
TTGACTAGTC	0.992
TTGACTGCTG	0.974
TTGAGACAGT	0.979
TTGAGAGGCT	0.984
TTGAGAGTGT	0.967
TTGAGATCTG	0.991
TTGAGCAGTG	1.04
TTGAGCATCA	1.01
TTGAGCGAAA	1
TTGAGCTGAG	1.03
TTGAGGTAGG	1.04
TTGAGTACTC	1.04
TTGAGTTTCT	0.957
TTGATAACTT	1.03
TTGATACGAG	1.04
TTGATATTAG	0.996
TTGATCGTTT	0.957
TTGATGGCCA	1.06
